From PubChem BioAssay AID686979 (National Center for Advancing Translational Sciences (NCATS), 2013)
The whole screen tested about 420,000 compounds, of which about 50,000 (12%) were called active. The shares of active, inactive and inconclusive entries below differ from those in the screen. Calls follow the shape of the dose curve; as a rule, active = well fitted inhibition curve with a large enough effect; inconclusive = small, poorly fitted or top-dose-only effect; inactive = flat fitted curve, though single readings scatter. Potencies of inconclusive entries are left out as doubtful fits.

experiment: qHTS for Inhibitors of human tyrosyl-DNA phosphodiesterase 1 (TDP1): qHTS in cells in presence of CPT; details: chicken DT40 Tdp1-/-;hTDP1 cells + 20 nM CPT, ATP luminescence, 48 h; activity change, negative = growth inhibition: at 46.2 µM (top of the series); also: nearly all actives have a fitted effect of over 55% in size
Summary of the method: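 Cell growth measured by CellTiter-Glo luminescence after a minimum 48 h, 37 C compound exposure with 20 nM CPT in Tdp1-knockout DT40 cells stably expressing hTDP1, seeded 400/well; qHTS titration format.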
% is scaled to controls: 0 for no effect and ±100 for the full control effect; potency is read from the fitted curve at half-maximal effect; tags tell the direction and shape of the fitted curve.

| Structure (SMILES) | Potency | activity change, negative = growth inhibition |
| --- | --- | --- |
| O=C(CC1(O)C(=O)N(Cc2ccccc2)c2ccccc21)c1ccc2c(c1)OCO2 (stereo not given) | inconclusive [inhibitor, single point] |  |
| O=C(NC(=S)N(CCO)Cc1ccccc1)c1ccc(S(=O)(=O)N2CCCC2)cc1 | inconclusive [inhibitor, single point] |  |
| Clc1ccc(C2=Nn3c(nnc3-c3cc(-c4ccccc4)n[nH]3)SC2)cc1 | inconclusive [inhibitor, single point] |  |
| CC1Cc2nc(SCC(=O)NCc3ccco3)n(Cc3ccccc3)c(=O)c2S1 (stereo not given) | inconclusive [inhibitor, single point] |  |
| COCCCNC(=O)CC(NS(=O)(=O)c1ccc(C)cc1)c1ccc(OC)cc1 (stereo not given) | inactive |  |
| CC1Sc2ccc(S(=O)(=O)N3CCC(C(=O)Nc4ccc(Cl)cc4)CC3)cc2NC1=O (stereo not given) | active: 20.6 µM |  |
| CC(=O)N1N=C2/C(=C/c3ccccc3)CCCC2C1c1ccccc1 (stereo not given) | inconclusive [inhibitor, single point] |  |
| CC(C)[C@H](CN1CCC[C@H]1CN1C(N)=NC[C@@H]1Cc1ccccc1)N1C[C@@H](Cc2ccccc2)N(CCc2ccc(Cl)c(Cl)c2)C1=N | active: 9.2 µM |  |
| O=C(NCc1ccccc1)c1ccc(-c2ccccc2C(F)(F)F)o1 | inactive |  |
| O=C(N[C@@H](Cc1ccc(O)cc1)C(=O)O)c1ccncc1 | inactive |  |
| CCc1ccc(N/C(SC)=C(/C#N)C(N)=O)cc1 |  | inconclusive: -33.1% [inhibitor] |
| CCOc1ccc(/C=C/C(=O)NCc2ccccc2)cc1 | inactive |  |
| CC(=O)Cc1nsc(NC(=O)c2ccc(-c3cccc(Cl)c3)o2)n1 | active: 16.4 µM |  |
| CC(C)(CNC(=O)c1ccc(Cl)c(S(=O)(=O)N2CCc3ccccc3C2)c1)N1CCOCC1 | inconclusive [inhibitor, partial curve] |  |
| O=S(=O)(c1ccccc1Br)N(CC(O)COCc1ccccc1)C1CC1 (stereo not given) | inconclusive [inhibitor, single point] |  |
| CC(C)Oc1cc(C(=O)N2CCC(N3CCCCC3)CC2)ccc1Nc1nnc(Cl)c(Nc2ccccc2S(C)(=O)=O)n1 | inconclusive [inhibitor, single point] |  |
| CCOC(=O)C1CCN(C(=O)CCN2C(=O)C3C4C=CC(C4)C3C2=O)CC1 (stereo not given) | inconclusive [inhibitor, single point] |  |
| Clc1ccc(-c2nnc(SCc3nc(-c4ccccc4)no3)o2)cc1 | inconclusive [inhibitor, single point] |  |
| CCOc1ncccc1C(=O)NNC(=O)c1cccc(S(=O)(=O)Nc2ccc(OC)cc2)c1 |  | inconclusive: -32.2% [inhibitor] |
| Cn1cc(Br)c(C(=O)NNC(=O)c2ccc(Cl)cc2)n1 | inactive |  |
| Cn1nc(C(C)(C)C)cc1C(=O)N1CCCCC1c1cc(C(=O)NCc2ccccc2)no1 (stereo not given) | active: 10.3 µM |  |
| Cc1ccc2c(c1)N(CC(=O)N1CCCc3ccccc31)C(=O)C(C)O2 (stereo not given) | inconclusive [inhibitor, partial curve] |  |
| COc1ccnc(N2CCN(c3ccc(Cl)cc3)CC2)c1C#N | inactive |  |
| CCCCn1c(CNC(=O)C(C)(C)C)nc2ccccc21 | inactive |  |

| Structure (SMILES) | Potency | activity change, negative = growth inhibition |
| --- | --- | --- |
| O=C(CCCn1c(SCc2cc(=O)n3cc(Cl)ccc3n2)nc2ccccc2c1=O)NCC1CCCO1 (stereo not given) | inconclusive [inhibitor, single point] |  |
| CN(CCCC1CCCC1)C(=O)c1cc(COc2c(F)cccc2F)on1 | inactive |  |
| CCOc1ccc(C(=O)O/N=C(\N)c2ccccn2)cc1 | inactive |  |
| COc1cc(C(=O)NNC(=O)c2cc(S(=O)(=O)N(C)C)ccc2N2CCCC2)cc(OC)c1OC | inactive |  |
| COc1ccc2ncc3c(-c4ccc(C)c(C)c4)nn(CC(=O)NC4CCCC4)c3c2c1 | active: 5.17 µM |  |
| CC(C(Sc1ccccc1N)c1ccccc1)[N+](=O)[O-] (stereo not given) | active: 3.66 µM |  |
| CSc1ccccc1NC(=O)COc1ccc(S(=O)(=O)N2CCCC2)cc1 | inconclusive [inhibitor, partial curve] |  |
| CC(=O)Nc1cccc(/C(C)=N/NC(=O)c2c(-c3ccccc3Cl)noc2C)c1 | inconclusive [inhibitor, partial curve] |  |
| COc1ccc(CN(C(=O)c2oc3ccccc3c2C)C2CCS(=O)(=O)C2)cc1OC (stereo not given) | inconclusive [inhibitor, single point] |  |
| CCOC(=O)c1c(C)n(C)c2ccc(OCC(O)Cn3c(C)nc4ccccc43)cc12 (stereo not given) | inconclusive [inhibitor, single point] |  |
| CCCCNC(=O)C1CCC(CNS(=O)(=O)c2ccc(NC(C)=O)cc2)CC1 (stereo not given) | inconclusive [inhibitor, single point] |  |
| CSc1nnc2c3ccccc3n(Cc3ccccc3)c2n1 | inconclusive [inhibitor, partial curve] |  |
| Cc1cccc(NC(=O)CNC(=O)c2cc(S(=O)(=O)N(C)C)ccc2N2CCCC2)c1C | inactive |  |
| COc1ccc(CCNC(=O)c2cc3c(=O)n(C)c4ccccc4c3n2C)cc1OC | inconclusive [inhibitor, single point] |  |
| COc1ccc(/C(N)=N/OC(=O)c2c(-c3ccccc3Cl)noc2C)cc1OC | active: 20.6 µM |  |
| O=C(NNC(=O)c1csc(-c2cnccc2C(F)(F)F)n1)c1ccc(C(F)(F)F)cc1 | inconclusive [inhibitor, single point] |  |
| CSc1ccc(CN2CCC(Cc3ccccc3)CC2)cc1 | inconclusive [inhibitor, partial curve] |  |
| CCN(CC)c1ccc(NC(=O)Cn2nc(C)n3cccc3c2=O)c(C)c1 | active: 14.6 µM |  |
| Cc1cc(OC(=O)c2cccc([N+](=O)[O-])c2)c(C)cc1CN1CCOCC1 | inactive |  |
| Cc1n[nH]c(C)c1CCC(=O)N/N=C/c1cccs1 | inactive |  |
| O=C(Nc1ccc(O)cc1)c1cccc(Oc2ccc([N+](=O)[O-])cc2)c1 | inconclusive [inhibitor, single point] |  |
| COc1cc(/C=C(\C#N)C(=O)Nc2cccc(C(=O)O)c2)ccc1OCc1ccc(F)cc1 | inactive |  |
| Cc1cc(C)n2nc(SCC(=O)N3CCC(C(=O)O)CC3)nc2n1 | inconclusive [inhibitor, full curve, poor fit] |  |
| Cc1nc(-c2ccc(S(=O)(=O)NCc3ccc(N(C)C)cc3)cc2)co1 | inconclusive [inhibitor, partial curve] |  |

| Structure (SMILES) | Potency | activity change, negative = growth inhibition |
| --- | --- | --- |
| Cc1ccc2nc(NCc3ccc(F)cc3)c3nncn3c2c1 | inconclusive [inhibitor, single point] |  |
| O=C1C(=O)N(CNc2ccccn2)c2ccccc21 | active: 2.06 µM |  |
| COc1ccc(C)cc1NC(=O)CSCc1ccccc1C | inactive |  |
| CC1Cc2cc(S(=O)(=O)N3CCN(c4cccc(Cl)c4)CC3)ccc2N1C(=O)C1CC1 (stereo not given) | inconclusive [inhibitor, single point] |  |
| CCN(C(=O)COC(=O)C(c1ccccc1)c1ccccc1)c1c(N)n(Cc2ccccc2)c(=O)[nH]c1=O | inconclusive [inhibitor, single point] |  |
| O=C(NCC(F)(F)F)c1ccc(S(=O)(=O)Nc2ccccc2N2CCCC2)cc1 | inactive |  |
| CC(=O)NC(CC(=O)Nc1cccc(S(=O)(=O)N2CCCCC2)c1)c1ccccc1 (stereo not given) | inconclusive [inhibitor, single point] |  |
| Cc1nc(-c2ccc(F)cc2)c(CC(=O)N(C)CC(=O)Nc2ccc(Cl)c(C(F)(F)F)c2)s1 | inconclusive [inhibitor, single point] |  |
| Cc1ccc(S(=O)(=O)N(C)C)cc1NC(=O)COC(=O)/C(=C/c1ccc(F)cc1)c1cccs1 | active: 13 µM |  |
| Cc1ccc2ccccc2[n+]1CCCS(=O)(=O)[O-] | inactive |  |
| N#Cc1ccc(-c2csc(NC(=O)/C=C/c3cccs3)n2)cc1 | active: 13 µM |  |
| CCO[C@@H]1OC(C(=O)N2CCN(Cc3ccccc3)CC2)=C[C@H](c2csc3ccccc23)[C@H]1CCCO | active: 13 µM |  |
| CCOC(=O)c1c(C)n(C)c2ccc(OC(=O)c3ccc(N4C(=O)CCC4=O)cc3)cc12 | inconclusive [inhibitor, single point] |  |
| COc1ccc([C@H]2CC(=O)C=C(c3cccc(C(F)(F)F)c3)C2)cc1 | inconclusive [inhibitor, single point] |  |
| CCCn1c(Sc2nc3c(c(=O)[nH]c(=O)n3C)n2CCC)nc2c1c(=O)[nH]c(=O)n2C | inactive |  |
| O=C(CN1CCCc2ccccc21)NCCc1ccc(F)cc1 | inactive |  |
| O=C1OCCN1C(=O)[C@H]1[C@H](c2ccc(Cl)cc2)C(c2ccc(F)cc2)=NN1c1ccc(Br)cc1 | inconclusive [inhibitor, single point] |  |
| CCCCn1c(O)c(/C=C/C=C/C=Nc2ccccc2)sc1=S | active: 11.6 µM |  |
| CC1CCN(Cc2c(C(=O)N/N=C/c3ccc(C(F)(F)F)cc3)nnn2-c2nonc2N)CC1 | inconclusive [inhibitor, single point] |  |
| COC(=O)Nc1nc(C)c(C(=O)c2ccccc2)s1 | active: 8.2 µM |  |
| Cc1cc(Cl)ccc1C(=O)C1CCCN(C(=O)c2n[nH]c3c2CCCC3)C1 (stereo not given) | inconclusive [inhibitor, single point] |  |
| Cc1noc(C)c1COC(=O)c1ccc2c(c1)OCCO2 | inconclusive [inhibitor, single point] |  |
